PubChem BioAssay AID1240 (Sanford-Burnham Center for Chemical Genomics, 2008)
Hit rate of the full screen: of about 50,000 compounds, about 800 (1.6%) showed an effect of 50% or more. The list shows a part of the results.

These compounds were tested against Bcl-2-like protein 10 (Homo sapiens) (UniProt Q9HD36) (assay: Phenotype converters, Bcl-B/TR3 peptide binding displacement, primary biochemical FP (AID 1240;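 also: 0% = Bcl-B with tracer peptide and DMSO and 100% = tracer peptide lacking Bcl-B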)). Settings: GST-Bcl-B / FITC-TR3 peptide fluorescence polarization; stronger effect = higher value; compound at 3.75 mg/L.
Chain of UniProt Q9HD36 (Q9HD36 whole entry, looked up): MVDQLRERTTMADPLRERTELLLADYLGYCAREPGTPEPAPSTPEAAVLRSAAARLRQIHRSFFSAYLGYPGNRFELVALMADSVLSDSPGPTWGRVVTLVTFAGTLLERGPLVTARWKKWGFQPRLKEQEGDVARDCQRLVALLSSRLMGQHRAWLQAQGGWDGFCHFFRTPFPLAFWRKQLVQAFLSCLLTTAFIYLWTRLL

SMILES | displacement
O=C1NC(=S)S/C1=C/c1ccccc1OS(=O)(=O)c1ccccc1[N+](=O)[O-] | 11.9%
CC1=NN(c2ccccc2)C(=O)/C1=C/c1ccc(OS(=O)(=O)c2ccccc2[N+](=O)[O-])cc1 | -8.1%
Cc1ccc(/C=C(\C#N)c2nc3ccccc3n2C)o1 | -12.7%
CC(C)CC(=O)NC(NC(=O)CC(C)C)c1ccc(Br)cc1 | 4.4%
O=C1C(=O)N(CCCn2ccnc2)C(c2ccc(Cl)cc2)/C1=C(\O)c1ccc(Cl)cc1 (stereo not drawn) | -5.8%
O=[N+]([O-])c1cc(Br)c(O)c(/C=N/Nc2nc3ccccc3[nH]2)c1 | -1.3%
CCC(Sc1nc2ccccc2s1)C(=O)Nc1ccc([N+](=O)[O-])cc1 (stereo not drawn) | -12%
O=C(CSc1nnc(-c2ccccc2)n1-c1ccccc1)N/N=C/C=C/c1ccccc1 | 0.7%
Cc1ccc2c(c1)c1c3n2CCN(C(=O)c2ccc([N+](=O)[O-])cc2)C3CCC1 (stereo not drawn) | 0.7%
COc1ccccc1C(=O)N1CCN(Cc2ccc(Cl)cc2)CC1 | -17.9%
CCOC(=O)c1c(NC(=O)Oc2ccccc2)sc2c1CCC2 | 12.9%
O=C(/C=C/c1ccc(Cl)cc1)Nc1ccc(-c2nc3ccccc3o2)c(O)c1 | -0.3%
CCC(=O)Nc1ccc(NC(=O)c2ccccc2[N+](=O)[O-])cc1 | 5.2%
COc1ccc(C(=O)NCC2(c3ccc(OC)c(OC)c3)CCCCC2)c(OC)c1 | -14.3%
CC(=O)Nc1ccc(C2NN=C(c3ccc(C)cc3)S2)cc1 (stereo not drawn) | 49.6%
CCn1c(C)nc2cc(S(=O)(=O)N3CCCC3)ccc21 | 16.9%
O=C(NC(=S)Nc1ccc(-c2nc3ccccc3o2)cc1)c1ccco1 | 11.6%
COc1cc(C=Nc2cccc(Br)c2)ccc1O | 7.9%
Cc1ccc2[nH]c3nc(N/N=C/c4cccc(Cl)c4)nnc3c2c1 | 4.8%
N#C/C(=C/c1ccc(-c2ccccc2C(=O)O)o1)C(=O)Nc1ccc2ccccc2c1 | 18.9%
COc1ccc(S(=O)(=O)N2CCN(Cc3ccc(Cl)cc3)CC2)cc1 | 12.2%
CC(=O)N(C)c1ccc(NC(=O)c2ccc(F)cc2)cc1 | -0.3%

SMILES | displacement
COc1ccccc1Nc1nc(C(F)(F)F)c(-c2ccccc2)s1 | 7.8%
C/C(Nc1ccc(C)cc1)=C(/C#N)C(N)=O | -3.5%
CCN(CC)c1ccc(NC(=O)Nc2ccccc2)cc1 | -5.4%
CC1=C(C(=O)OC2CCCCC2)C(c2cccc(Cl)c2)C2=C(CCCC2=O)N1 (stereo not drawn) | 5.2%
O=c1/c(=C/c2cn(Cc3ccc(F)cc3)c3ccccc23)sc2nc3ccccc3n12 | 2.3%
COc1cc(NC(=O)c2cc(OC)c(OC)c(OC)c2)ccc1NC(=O)c1ccco1 | -13.2%
CCc1ccc(N2C(=O)NC(=O)/C(=C\c3cc(I)c(O)c(OC)c3)C2=O)cc1 | -7.2%
CC(=O)Oc1ccc(C(=O)Nc2cc([N+](=O)[O-])ccc2O)cc1 | 7.1%
CCCCOC(=O)CCN1C(=O)/C(=C\c2cccs2)SC1=S | -19.6%
CCOc1ccc(NC(=O)C2=C(C)NC(=S)NC2c2c(OC)ccc3ccccc23)cc1 (stereo not drawn) | 13.5%
Cc1cccc(OCC(=O)N/N=C\c2ccc(-c3cc([N+](=O)[O-])ccc3Cl)o2)c1C | -2%
C=CCC1(C#N)C(=S)NC2=C(C(=O)CC(C)(C)C2)C1C (stereo not drawn) | -25.3%
CC1(C)CC(=O)C2=C(C1)c1c(ccc3ccccc13)NC2c1cn[nH]c1-c1ccccc1 (stereo not drawn) | 3.9%
CC1C(c2ccccc2)NC(c2ccccc2)C(C)C1(O)c1ccccc1 (stereo not drawn) | 11.1%
CCN(CC)C(=O)c1c(NC(=O)c2cccc(C)c2)sc2c1CCCCC2 | -8.3%
S=C1NC(c2ccccc2)=NCN1c1ccc(Br)cc1 | 9.6%
O=C(c1cc2n(n1)C(C(F)(F)F)CC(c1cccs1)N2)N1CCCC1 (stereo not drawn) | -1.2%
CCc1c(C)sc(NC(=O)c2c(-c3ccccc3)noc2C)c1C(N)=O | -9.1%
O=C(N/N=C\c1cc(I)ccc1O)c1ccc(Br)cc1 | 8.9%
Cc1ccc(S(=O)(=O)Nc2ccc(C(=O)CC(=O)Nc3ccccc3)cc2)cc1 | -11.6%
CCCCCCNC(=O)C(NC(=O)c1ccccc1)C12CC3CC(CC(C3)C1)C2 (stereo not drawn) | -7.1%
CC1=NN(c2ccccc2)C(c2ccc(O)cc2)C1 (stereo not drawn) | 17.6%

SMILES | displacement
COc1ccc(C(=O)/C=C/c2ccc(OC)c([N+](=O)[O-])c2)cc1 | -2.6%
O=C1/C(=C\c2cc([N+](=O)[O-])cc(Br)c2O)SC(=S)N1c1cccc(Cl)c1 | -27.5%
CCCCCCCCn1c(/N=C/c2cccc(OCC)c2O)nc2ccccc21 | 0.3%
COc1ccc(OC(C)C(=O)Nc2ccc([N+](=O)[O-])cc2)cc1 (stereo not drawn) | 14.9%
CC1=C(C#N)c2nc(N)c(C#N)c(C)c2/C1=C\c1ccc(Cl)c(Cl)c1 | 7.1%
COc1ccc(C)cc1NC(=O)Cc1ccccc1[N+](=O)[O-] | 4.1%
CC1(C)Cc2c(sc3nc(SCC(N)=O)n(CCc4ccccc4)c(=O)c23)CO1 | -7.7%
c1ccc(Nc2ccc3nc4ccccc4nc3c2)cc1 | 8.9%
Cc1cccc(OCCNc2nc3c(c(=O)n(C)c(=O)n3C)n2C)c1 | 0.7%
CCOc1ccc(-c2cc(C)n3nc(C(N)=O)cc3n2)cc1 | 4.8%
O=C(COc1ccc(Cl)cc1)N1CCN(C(=O)c2cccs2)CC1 | -10.4%
CN1C(=O)NC(=O)/C(=C\c2ccc(Cl)cc2)C1=O | 1.4%
CCOC(=O)c1c(NC(=O)Cc2ccc(Cl)cc2)sc(C(=O)Nc2ccccc2)c1C | -5.3%
COc1ccc(N(CC(=O)Nc2ccc3ccccc3c2)S(=O)(=O)c2ccc(C)cc2)c(OC)c1 | -1%
CN(CCCC(=O)O)S(=O)(=O)c1ccc2c(c1)Cc1cc(S(=O)(=O)N(C)CCCC(=O)O)ccc1-2 | -0.2%
O=c1oc(-c2ccccc2F)nc2c1cnn2-c1ccccc1 | 3.8%
CCOc1ccc(C(=O)N2CCN(Cc3ccccc3)CC2)cc1OCC | 3%
COc1ccc(/C=C2\C=C(c3ccc(Cl)cc3)OC2=O)cc1[N+](=O)[O-] | 36.4%
Cc1cccc(C(=O)Nc2cc(-c3ccc(F)cc3)[nH]n2)c1 | 9.1%
Cc1n[nH]c(C)c1CCC(=O)N/N=C/c1ccc(O)cc1O | -18.3%
O=C(/C=C/c1ccco1)Nc1ncc(Cc2cccc(Cl)c2)s1 | -25.2%
Cc1cccc(NC(=O)CSc2nccn2C)c1 | 8.2%

SMILES | displacement
c1ccc(-c2noc(C(c3ccccc3)c3ccccc3)n2)cc1 | 12.7%
Cc1ccc(S(=O)(=O)Nc2ccc(N3CCOCC3)cc2)cc1[N+](=O)[O-] | 2.2%
Cc1ccc(C)c(OCCN2CCCCC2)c1 | 3.9%
Cc1ccc(C)c(NC(=O)/C=C/c2ccc(C)o2)c1 | 10.2%
Cc1ccccc1NC(=O)CCCC(=O)OCC(F)(F)C(F)F | 6.4%
CCOc1ccc(N(CC(=O)NCCCOC)S(C)(=O)=O)cc1 | 7.5%
CC(=O)c1ccc2c(c1)C1C=CCC1C(c1cccc([N+](=O)[O-])c1)N2 (stereo not drawn) | 17.4%
Cc1onc(-c2ccccc2Cl)c1C(=O)N1C(C)CCCC1C (stereo not drawn) | 0.8%
Cc1ccccc1-n1c(C)cc(/C=N/NC(=O)CN2CCOCC2)c1C | -22.2%
O=C1/C(=C\c2cn(Cc3ccccc3F)c3ccccc23)SC(=S)N1c1ccc([N+](=O)[O-])cc1 | 28.7%
N=c1sc(Cc2ccccc2Cl)cn1CC(=O)c1ccc(Br)cc1 | -11.7%
O=C(Cc1cccs1)Nc1ccc(Br)cc1C(=O)O | 1.1%
COc1ccc(NC2=CC(c3ccc(OC)cc3)N(c3ccc(OC)cc3)C2=O)cc1 (stereo not drawn) | 0.1%
COCCNC(=O)Cc1ccc(OC)c(OC)c1 | -1.5%
CC(C)(C)C1CCc2c(sc3c2c(=O)n(Cc2ccccc2)c2n[nH]c(=S)n32)C1 (stereo not drawn) | -4.7%
O=C(CN1C(=O)/C(=C/c2ccccc2Cl)SC1=S)Nc1nccs1 | -0.2%
COc1ccc(-c2cc(-c3ccccc3)nc(N/N=C/c3ccc(O)cc3O)n2)cc1OC | -1.2%
COc1cc(/C=C2/SC(=S)N(Cc3ccccc3)C2=O)cc(Cl)c1OCc1ccccc1 | 12.4%
C=CCOc1ccc(/C=C2\C(=O)C(C(=O)OC)=C(C)N2c2ccc(C)cc2)cc1 | -24.7%
C=CCNC(=O)/C=C/c1cc(OC)ccc1OC | -9%
Cc1ccccc1C(=O)NN1C(=O)/C(=C\c2cccs2)SC1=S | -5.1%
O=[N+]([O-])c1ccc(-n2ncnc2-c2ccccc2)cc1 | 5.3%

SMILES | displacement
O=C1C=C(NCCN2CCOCC2)CC(c2ccccc2)C1 (stereo not drawn) | 8.5%
COCCNC(=O)c1ccc(I)cc1 | 11.3%
CCC(=O)NCCN=Cc1ccc(Cl)cc1Cl | 7.9%
CCCCN(CC(O)COc1cccc(OC)c1)S(=O)(=O)O (stereo not drawn) | 1.3%
Cc1ccc(C(=O)N2CCN(c3ccccn3)CC2)cc1 | -2.9%
O=c1[nH]c2ccccc2cc1/C=N\Nc1nc(-c2ccccc2)c2cc(Cl)ccc2n1 | 13.7%
Fc1ccc(-c2nc(Cc3ccccc3Cl)no2)cc1 | 7.1%
O=C(COc1ccccc1)NNC(=O)COc1ccc([N+](=O)[O-])cc1 | 7.9%
Cc1ccc(-c2nc3sccn3c2NC(=O)c2ccc(Cl)cc2)cc1 | 7.3%
CCN(CC)c1ccc(/C=N\N2CCN(c3ccccc3)CC2)c(O)c1 | 25.3%
O=C(NCc1ccccc1)c1ccc(C#Cc2ccccc2)cc1 | -9.5%
CCOC(=O)C1=CN(c2ccc(C)c(C)c2)C=C(C(=O)OCC)C1c1cccc(OC)c1 | 9.4%
N#Cc1c(N)nc2c(c1-c1ccccc1)CCCC2 | 0.2%
CCN(CC)c1ccc(C=C(C(C)=O)C(C)=O)c(OC(C)=O)c1 | 48.6%
COC(C#CC(C)(C)N(C)C)(c1ccccc1)c1ccccc1 | -5%
Cc1cc(NC(=O)c2ccc(Cl)cc2Cl)ccc1NC(=O)c1ccccc1 | -2.3%
CC(=O)Nc1ccc(S(=O)(=O)NCc2ccccc2)cc1 | -2.4%
Cc1cccc(NC(=S)NC(=O)C(C)(C)C)c1C | 7.2%
O=S(=O)(Nc1ccc2c(c1)OCO2)c1ccccc1 | 10.5%
O=C(CSC1=NCCS1)c1ccc(Cl)cc1 | -48.1%
